Measured values taken from publication PMC7819943, “Rice protein-binding microarrays: a tool to detect cis-acting elements near promoter regions in rice”.
The list shows a part of the results.

Each sequence was assayed against T1, OsWOX13 (Oryza sativa, UniProt Q5QMM3 1-267) (assay: protein-binding microarray (RPBM); PBS, 2% BSA, 51.3 ng/ul salmon testes DNA, 50 uM zinc acetate, 200 nM TF, 25 C, 1 h; high values mean tight binding). Details: protein: recombinant; tags: N-terminal polyhistidine and DsRed monomer fusion (pET32a); label: CyDye5-dUTP incorporated in the synthesized complementary strand; 3' TTTTT single-stranded linker to array surface; dsDNA, one strand shown.
T1 sequence: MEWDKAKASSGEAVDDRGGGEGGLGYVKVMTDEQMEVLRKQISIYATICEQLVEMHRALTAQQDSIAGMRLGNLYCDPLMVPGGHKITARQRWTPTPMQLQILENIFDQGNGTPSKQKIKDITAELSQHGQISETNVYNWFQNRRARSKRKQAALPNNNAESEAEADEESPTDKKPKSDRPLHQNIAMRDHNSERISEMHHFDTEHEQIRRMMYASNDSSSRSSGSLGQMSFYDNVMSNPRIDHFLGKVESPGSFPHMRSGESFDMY
How it was run: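 The binding signal is fluorescence intensity per array feature (arbitrary units). Readings came from an Axon 4000B scanner after a washed, 2% BSA-blocked, double-stranded custom Agilent array had been incubated for 1 h at 25 °C with 200 nM protein and 50 µM zinc acetate. The protein was a Ni–NTA-purified transcription factor fused N-terminally to polyhistidine and DsRed, expressed in E. coli BL21-CodonPlus.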
With “TATAACTAAAATTATATTTGTAAGTTTAGTTGATATGACACGGAGTCACCTAGTGCAG” the binding signal was 6390 fluorescence intensity (a.u.).
“GAGGAAATTGGAGGATGGTAACACTGAAGAGAATGGAGATCGGAGTCACCTAGTGCAG” was tested, and the binding signal was 4930 fluorescence intensity (a.u.).
With “AAACTAATTTAAATCTGTGCTAACATCCAGCATTTTACTTCGGAGTCACCTAGTGCAG” the binding signal was 13800 fluorescence intensity (a.u.).
In the case of “GTTGTGTAACTGATTGACCGGGTTGTGTGGCTAAACGTGGCGGAGTCACCTAGTGCAG”, the binding signal is reported as 39800 fluorescence intensity (a.u.).
With “TATAATTTGAAATTCAAATTTAAATTATTGAAACAGAGTCCGGAGTCACCTAGTGCAG” the binding signal was 44600 fluorescence intensity (a.u.).
For “GAGTCAATTAAGGTCGCTGGTAACAGCCAGTGCTCGGCTCCGGAGTCACCTAGTGCAG”, the binding signal was 19700 fluorescence intensity (a.u.).
For “CAGATCTATGATTGGGCCGTGATGGACGGGCCCGATTCAACGGAGTCACCTAGTGCAG”, the binding signal was 27000 fluorescence intensity (a.u.).
“CAACCTTACTAATCAATCGGATGCATATATATGGGCTTGGCGGAGTCACCTAGTGCAG” was tested, and the binding signal was 5030 fluorescence intensity (a.u.).
For “TGAAACCAATGATTGCAAGCAACATTACGCGTCGCCGAGTCGGAGTCACCTAGTGCAG”, the binding signal was 18000 fluorescence intensity (a.u.).
For “TTGTCAATTACTGCTCCGGTGACTGTTAATTTGGATTTTCCGGAGTCACCTAGTGCAG”, the binding signal was 32900 fluorescence intensity (a.u.).
In the case of “ATCATCATCGGCTTGTCAATCATATCATCATCGTTCATTTCGGAGTCACCTAGTGCAG”, the binding signal is reported as 8720 fluorescence intensity (a.u.).
In the case of “ATAAGCTGATGATTAGGCTATCCTGAACTGTTGCTCTCGGCGGAGTCACCTAGTGCAG”, the binding signal is reported as 8130 fluorescence intensity (a.u.).
“ACGTAATAATTAAATATTCCAAATACAACGGAAACGTAATCGGAGTCACCTAGTGCAG” was tested, and the binding signal was 7270 fluorescence intensity (a.u.).
With “GGGTAATCACAGTCGATTTTCTGTTCAAATTGATATCCCTCGGAGTCACCTAGTGCAG” the binding signal was 14400 fluorescence intensity (a.u.).
In the case of “TTTTGATCACCCGTTTCTGATGGAATGGAAGTCCCTTGCCCGGAGTCACCTAGTGCAG”, the binding signal is reported as 3800 fluorescence intensity (a.u.).
“CAAAATGAGAATAAATTGAATTCAATTCAAACCTCTTAATCGGAGTCACCTAGTGCAG” was tested, and the binding signal was 16500 fluorescence intensity (a.u.).
With “GTTGATTTTCATAATGAAGCTGTATTTCAATTTTGAACTGCGGAGTCACCTAGTGCAG” the binding signal was 22300 fluorescence intensity (a.u.).
With “TTGATTAGACACAACATGTTCGGCTGCTCACTGCCAACAGCGGAGTCACCTAGTGCAG” the binding signal was 21500 fluorescence intensity (a.u.).
“CAAATTGAAGAGGATGCATGAATTGGATTTGCAGGAGAAGCGGAGTCACCTAGTGCAG” was tested, and the binding signal was 5250 fluorescence intensity (a.u.).
“TTATTTAGATTGAGAGTAGTATGTCCACATCGCATATCTTCGGAGTCACCTAGTGCAG” was tested, and the binding signal was 25800 fluorescence intensity (a.u.).
In the case of “ATATTTAAACACTAATTTAGAGTATTAAATATAGACTACTCGGAGTCACCTAGTGCAG”, the binding signal is reported as 9470 fluorescence intensity (a.u.).
“GCGATCAATTAGTGCGTGATTAATTAAGTATTAGCTATTTCGGAGTCACCTAGTGCAG” was tested, and the binding signal was 4760 fluorescence intensity (a.u.).
With “CCGGTAATAGAAGGTACGGAAATTTAGTGCAAATTTTAGTCGGAGTCACCTAGTGCAG” the binding signal was 3860 fluorescence intensity (a.u.).
With “TCTGATTGATGATGACGATGATGGCGGCTGTGCAGCTGAACGGAGTCACCTAGTGCAG” the binding signal was 47600 fluorescence intensity (a.u.).
“ATATTTAATCTCTATTTAACAATTGCTGATGATGGCTGGCCGGAGTCACCTAGTGCAG” was tested, and the binding signal was 7210 fluorescence intensity (a.u.).
“AAAATTGATGGCCCCAGGCTGGCAGCGCCCTGAGATCCTTCGGAGTCACCTAGTGCAG” was tested, and the binding signal was 12300 fluorescence intensity (a.u.).
With “ATAAATTGGTGGACGTCCACTTGAGTTAGAATCCTCTCCCCGGAGTCACCTAGTGCAG” the binding signal was 23300 fluorescence intensity (a.u.).
In the case of “TCTATCAATCAGTTTGGACAGTGAGCGACAGAGGCGGCGCCGGAGTCACCTAGTGCAG”, the binding signal is reported as 4190 fluorescence intensity (a.u.).
For “CTATAATTAATCTCGCCGGAGTCCTCGCCGCGAACCCACCCGGAGTCACCTAGTGCAG”, the binding signal was 17300 fluorescence intensity (a.u.).
In the case of “ATAATTATATAATATATAATTAGCATATTAAACTACACGACGGAGTCACCTAGTGCAG”, the binding signal is reported as 34500 fluorescence intensity (a.u.).
In the case of “GATAATTGAAGGGCGCTATATACCTGATTTTACGGTTGAGCGGAGTCACCTAGTGCAG”, the binding signal is reported as 45500 fluorescence intensity (a.u.).
“AGAAAATGCCATAGTTAATTGCATACTTGCATGTATGCCTCGGAGTCACCTAGTGCAG” was tested, and the binding signal was 6780 fluorescence intensity (a.u.).
In the case of “GGTGACATAACTGAACAAGTTGGAGGACCTAAACGAGTGACGGAGTCACCTAGTGCAG”, the binding signal is reported as 8010 fluorescence intensity (a.u.).
For “TTTATACAATTATTATTACTGCTATTGGTAATAATGCTTTCGGAGTCACCTAGTGCAG”, the binding signal was 3450 fluorescence intensity (a.u.).
For “ACAGATTAAACAATCAAATAAAACTACATGTGAACACCTACGGAGTCACCTAGTGCAG”, the binding signal was 13000 fluorescence intensity (a.u.).
For “TATAATTATTCTAGCTACGAACCAGAGCATTTTATATCTTCGGAGTCACCTAGTGCAG”, the binding signal was 5860 fluorescence intensity (a.u.).
For “ACAAAACAAATTACAGATTCCGCTTATAAACTGCGAGACGCGGAGTCACCTAGTGCAG”, the binding signal was 10100 fluorescence intensity (a.u.).
“GCAGCAAAATGGAAATTGATACCAAACTAATTTTCTCATTCGGAGTCACCTAGTGCAG” was tested, and the binding signal was 10600 fluorescence intensity (a.u.).
In the case of “GCGCAATTAACAACAATGACGGGCATGCTTGGAGGTGAGCCGGAGTCACCTAGTGCAG”, the binding signal is reported as 21000 fluorescence intensity (a.u.).
With “AAACAATTACAAATGTTTAGCTGACATACAAGAACTGGACCGGAGTCACCTAGTGCAG” the binding signal was 3460 fluorescence intensity (a.u.).
In the case of “CAAATGACTTATAATATGAAATAATTAACTTCCAGTGTATCGGAGTCACCTAGTGCAG”, the binding signal is reported as 8710 fluorescence intensity (a.u.).
“GGATGATATGATTAACAGGATGTTATGCAGGCTGTAGATCCGGAGTCACCTAGTGCAG” was tested, and the binding signal was 36300 fluorescence intensity (a.u.).
